# This is one part of the list. The energies were worked out here from pooled read counts, against the library average; single values are noisy.
# Biological target: T1, Pho4 (S. cerevisiae) (UniProt P07270)
# T1 sequence: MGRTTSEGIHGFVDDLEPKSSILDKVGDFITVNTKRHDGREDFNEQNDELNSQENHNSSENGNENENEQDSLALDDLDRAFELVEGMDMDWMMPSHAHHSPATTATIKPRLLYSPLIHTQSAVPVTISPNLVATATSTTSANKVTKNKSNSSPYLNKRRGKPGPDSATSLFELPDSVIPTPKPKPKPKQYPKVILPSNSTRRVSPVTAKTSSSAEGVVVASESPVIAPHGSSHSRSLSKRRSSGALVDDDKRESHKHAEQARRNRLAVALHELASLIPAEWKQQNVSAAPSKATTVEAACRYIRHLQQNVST
# Experiment: relative binding free energy (BET-seq); higher = weaker binding
# Settings: reference: library average
row,Sequence,relative binding free energy [kcal/mol]
1,GTCGGCACGTGTTGGT,0.03
2,GCGTGCACGTGAGCGT,0.27
3,GTGGGCACGTGGGCAA,-0.15
4,ATGACCACGTGTGTGG,-0.09
5,TGGCTCACGTGCTGGT,0.08
6,AGCGGCACGTGGTTGG,-0.16
7,GGTTGCACGTGCATAG,-0.15
8,ATGAGCACGTGGTGTC,-0.19
9,ATAGTCACGTGTGCAT,0.03
10,GGTTACACGTGGGCAG,0
11,ACTAGCACGTGATGGG,-0.02
12,GTGGCCACGTGGGAGG,-0.15
13,TGGAGCACGTGATGCT,0.06
14,GATGTCACGTGTGCTA,0.07
15,GAATGCACGTGAGATT,0.34
16,CGGGACACGTGTTGGG,0.07
17,GTCGTCACGTGCGTGT,0.02
18,GGAGCCACGTGTGGGC,-0.02
19,AATTACACGTGAATGT,0.41
20,TCAGGCACGTGAGCGG,0.09
21,TTTCGCACGTGGCATT,-0.1
22,GTTGTCACGTGTTAAT,0.2
23,AATAGCACGTGGGCTT,-0.08
24,GCAGTCACGTGGAGTT,0.23
25,ATTAACACGTGCTTTT,0
26,TGTCGCACGTGTAGGC,0.04

row,Sequence,relative binding free energy [kcal/mol]
1,AGTTGCACGTGTTTCG,0.05
2,AGAGACACGTGGTTTT,0.01
3,TGTCTCACGTGGTGGG,0.15
4,GGAGACACGTGGAGTG,0.03
5,TTGGGCACGTGAGACA,0.04
6,TGGCACACGTGCTAGG,0.07
7,AGAGTCACGTGGGCAG,0.05
8,AATTTCACGTGTTCGT,0.22
9,GGTAGCACGTGGAGCA,-0.1
10,AATGTCACGTGGGACG,-0.06
11,AGTTGCACGTGTGTGA,-0.05
12,ATCTTCACGTGAGGTG,0.3
13,CTTCGCACGTGGGTTG,-0.15
14,TTTCGCACGTGTCTGG,0.02
15,TTCGTCACGTGACAGG,0.2
16,AGGGACACGTGGTGAG,0.01
17,TTAAACACGTGGTAGC,0.1
18,TAGTGCACGTGGCTGT,-0.08
19,TGGATCACGTGTAGGG,0.18
20,AGACGCACGTGCGGGG,-0.26
21,GTTTTCACGTGGTCTG,0.29
22,AATTACACGTGGCTTG,0.05
23,CTTGACACGTGGTAAG,-0.02
24,GTGAACACGTGGCAGG,-0.07
25,CTTGGCACGTGAAGCG,0.31
26,GACTGCACGTGGTGTG,0.02

row,Sequence,relative binding free energy [kcal/mol]
1,GTTAACACGTGGGACG,-0.06
2,TTATGCACGTGCTTCA,-0.05
3,TGTCGCACGTGTGGCG,-0.03
4,TCGAGCACGTGGATGT,-0.09
5,AAGGTCACGTGGATTC,0.25
6,AAGTTCACGTGGGCTG,0.28
7,GTTTTCACGTGGTAGT,0.3
8,CCGGGCACGTGTTATG,-0.05
9,TTTCACACGTGGGATG,-0.05
10,TTAGACACGTGAGTGT,0.22
11,ATGCTCACGTGAGGAT,0.36
12,GAGATCACGTGGGTTG,0.09
13,GCTGGCACGTGTGATT,-0.05
14,TGTGACACGTGTATGA,-0.02
15,ATTTTCACGTGTCCTT,0.41
16,ACTGTCACGTGGTTAT,-0.03
17,GTTATCACGTGAGATA,0.37
18,TTTTGCACGTGCAGGC,-0.04
19,GTTCACACGTGGTGGT,0.07
20,AGAGGCACGTGTTTTA,0.01
21,TTTGGCACGTGATCAG,-0.12
22,TAGTACACGTGCTTGT,0.04
23,AGGGGCACGTGCGCAG,-0.19
24,TAAGGCACGTGTGAAG,0
25,ATGGCCACGTGTTATT,0.07
26,AAGTCCACGTGGTAGG,0.03

row,Sequence,relative binding free energy [kcal/mol]
1,GGGGTCACGTGCTTTA,0.03
2,ACATTCACGTGTAGTT,0.27
3,GTTAGCACGTGGGCTG,-0.12
4,AGTAACACGTGAGGGG,0.21
5,TGCTTCACGTGTGAGC,0.35
6,AAGTGCACGTGATAGT,0
7,TGTGGCACGTGGGCTA,-0.21
8,TAAATCACGTGTCTTG,0.08
9,TCTTTCACGTGTAAGG,0.34
10,ACGGGCACGTGCGAGG,-0.05
11,ATGGACACGTGAAAGT,0.29
12,TTCGGCACGTGGATGG,-0.08
13,GTTACCACGTGTTTTT,-0.03
14,GGGCTCACGTGTGTAG,0.26
15,TGTGTCACGTGTGGGT,0.19
16,GTCGGCACGTGGGTTT,-0.19
17,CGGGCCACGTGTTTGT,0.06
18,TATAACACGTGAGGTC,0.38
19,CGTATCACGTGAAAGT,0.43
20,TGGCACACGTGCGGGT,-0.17
21,GGTAACACGTGGGGTT,-0.03
22,GGGGTCACGTGAGACA,0.44
23,ATACGCACGTGTGTAT,-0.01
24,GTGAGCACGTGGATGG,-0.02
25,GTTAGCACGTGGGTCT,-0.13
26,TTATACACGTGTTTTG,0

row,Sequence,relative binding free energy [kcal/mol]
1,TTGGTCACGTGCTGCT,0.01
2,AGGGGCACGTGACAAG,-0.11
3,GCGCTCACGTGGGGGG,0.03
4,GAGAGCACGTGACGGG,0.05
5,CTTATCACGTGGATGG,0.15
6,AGGGTCACGTGAAAAG,0.25
7,TGGCGCACGTGGAGTT,-0.09
8,CTTGACACGTGGTCGG,-0.07
9,TTCATCACGTGCAGTT,0.15
10,ACAGTCACGTGTGAGT,0.04
11,AAGTTCACGTGGGGGA,0.16
12,TTTGGCACGTGGGAGC,-0.07
13,TGCAGCACGTGAAGGG,0.17
14,TTCATCACGTGTTTGG,0
15,GTTTGCACGTGCTAAG,0.02
16,AATTGCACGTGAAGTG,0.18
17,TTAGACACGTGAGGAA,0.33
18,GTACGCACGTGTATGT,-0.04
19,GGTGTCACGTGCTTCG,0.03
20,AATGACACGTGTTGAT,0
21,ATATGCACGTGGAATG,0.07
22,GTTAACACGTGTTGGT,0.18
23,TGATGCACGTGTAAGT,0.15
24,TCATGCACGTGTGTCG,-0.02
25,AGGCTCACGTGAGTGT,0.43
26,TTGCTCACGTGTCGGT,0.28

row,Sequence,relative binding free energy [kcal/mol]
1,GTGTGCACGTGAAAAG,0.23
2,TATGTCACGTGGTGAA,-0.04
3,AGGGGCACGTGGGAAG,-0.19
4,TAGTCCACGTGGTTTA,-0.09
5,CGCGGCACGTGAGGGG,0.15
6,GTAGACACGTGACGGT,0.17
7,AGTGTCACGTGAGCGC,0.21
8,CCGCGCACGTGGTGGG,-0.21
9,ATCTACACGTGTGTAG,0.13
10,CCGTACACGTGGGGTG,-0.13
11,CGTTACACGTGCGTTG,0.07
12,TTATTCACGTGCAGGT,0.24
13,AGATGCACGTGGGGTC,-0.17
14,GCTTTCACGTGGGTTC,0.25
15,TGGTACACGTGTGGTG,0.17
16,GTGTCCACGTGAAGTT,0.27
17,TCGTACACGTGAGTTA,0.34
18,GGGGTCACGTGTGCGG,0.11
19,GTTTGCACGTGCAGCT,0.04
20,AATGTCACGTGATTGT,0.36
21,GAGGTCACGTGTCTGG,0.25
22,TGTTACACGTGTCGGT,0.16
23,AGTGACACGTGGTGAA,-0.1
24,AGTTTCACGTGCGGCT,0.1
25,ATCTTCACGTGAGGTT,0.29
26,AGTTACACGTGTGGTA,0.18

row,Sequence,relative binding free energy [kcal/mol]
1,CGTATCACGTGAGCTT,0.49
2,TGCACCACGTGGGGCG,-0.08
3,CTGGGCACGTGGTATG,-0.2
4,AATGGCACGTGTATGG,-0.1
5,GTTGTCACGTGGAGCG,0.21
6,GTATGCACGTGTAAGA,0.02
7,TTAGTCACGTGTGAGC,0.12
8,GAGGACACGTGACTGG,0.27
9,CTCGGCACGTGGAGTG,0.1
10,GCGCGCACGTGGATGG,-0.15
11,TGCAGCACGTGGGCTT,-0.27
12,TGGGTCACGTGCAGAA,0.14
13,TTGGTCACGTGTTGAG,0.14
14,TGGCTCACGTGTGTTA,0.19
15,TATGCCACGTGGGGGC,-0.33
16,CATTTCACGTGGCGGT,0.08
17,AGCACCACGTGGGGTG,-0.25
18,CGTGTCACGTGGGGAG,-0.04
19,ATTATCACGTGGCTGG,0.18
20,TTAGACACGTGGGCGT,-0.09
21,TTGGTCACGTGCGCGG,-0.02
22,AAATTCACGTGGCTTG,0.21
23,ATTAGCACGTGGGTGG,-0.21
24,TATGTCACGTGATGAA,0.11
25,TAGTTCACGTGTCGAA,0.34
26,ATTGTCACGTGTAATT,0.2

row,Sequence,relative binding free energy [kcal/mol]
1,ATAAACACGTGGGTTG,-0.24
2,TAAAGCACGTGAAAGT,0.29
3,ATGGACACGTGGAGTG,-0.06
4,AGGTTCACGTGGTCGA,0.33
5,TGATACACGTGGTGTA,-0.06
6,TTCAGCACGTGGGGTG,-0.29
7,TTGGTCACGTGTATGC,0.04
8,GGGTGCACGTGAGTGA,0.38
9,TGAGGCACGTGTCAGT,-0.15
10,TTTGGCACGTGGTGAG,-0.13
11,GATGTCACGTGTGTCA,0.12
12,TGAGGCACGTGCTCGT,-0.17
13,TGGTCCACGTGGTGTT,0.09
14,CTGAGCACGTGGGAGA,-0.11
15,TAAGTCACGTGGGGGT,-0.02
16,CGATACACGTGTGGTT,0.04
17,GTTTTCACGTGCTAAG,0.2
18,GTTTACACGTGGTTTA,0.17
19,AAGTACACGTGTAGTA,0.07
20,ATCGGCACGTGTGATT,0.03
21,TTGGACACGTGGTTGG,0.1
22,GTCGGCACGTGCGGTA,-0.04
23,ATGATCACGTGTTTTC,0.08
24,ATACGCACGTGATAGT,0.06
25,AGTATCACGTGAGGCG,0.23
26,TGTGGCACGTGCCGTT,-0.16

row,Sequence,relative binding free energy [kcal/mol]
1,TGTAACACGTGGATAT,-0.02
2,AGTGTCACGTGGATGC,0.06
3,GTTGTCACGTGAACGT,0.2
4,GCGGGCACGTGTGTCA,0.07
5,GAAGTCACGTGTGCGA,0.2
6,GGGGTCACGTGGAAAG,0.2
7,TATTTCACGTGGCGAT,0.15
8,GGTAGCACGTGGGAGA,-0.11
9,ATGGCCACGTGGTGGA,-0.19
10,CTAAGCACGTGGGTTA,-0.24
11,GAGGGCACGTGTACGT,0
12,GGTTTCACGTGGTACG,0.23
13,TGTATCACGTGTGGCA,0.24
14,GGGGGCACGTGCTGGG,-0.17
15,AATTACACGTGCTTTT,0.14
16,TGATGCACGTGTGAGA,0.13
17,ATGCTCACGTGTAGTA,0.3
18,TGGTTCACGTGTCGAG,0.39
19,GGGGACACGTGTATGA,-0.05
20,GGACACACGTGTTTTG,0.16
21,CGTTGCACGTGGAAAT,0.27
22,ATTTCCACGTGTAATA,0.33

# From the BET-seq Pho4 binding data (Le et al. 2018)
